The text below walks through data of PMC7761795 (Biochemistry, 2020).

The target in this experiment is UBE2D2 (human, UniProt P62837). Nature of the experiment: ITC. In general terms: Isothermal titration calorimetry measures the heat released or taken up as one component is titrated into another.
UniProt P62837, sequence (P62837 whole entry): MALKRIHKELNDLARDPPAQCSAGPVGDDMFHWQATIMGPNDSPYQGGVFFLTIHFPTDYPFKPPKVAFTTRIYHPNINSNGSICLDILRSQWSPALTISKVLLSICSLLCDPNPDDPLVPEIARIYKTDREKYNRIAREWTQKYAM

B1: OTUB1 (C91S) (enzyme)
chain: not shown
On to B1, for which the binding result is reported as “binds”.
